Screen size: about 360,000 compounds; about 7,500 (2.1%) were called active. The inconclusive results got no clear call from the source; some entries with a clear call stand among them for comparison. Calls follow the shape of the dose curve; as a rule, active = well fitted cell-killing curve with a large enough effect; inconclusive = small, poorly fitted or top-dose-only effect, or effect the other way, or another doubt; inactive = no such curve, though single readings can be large or run the other way. No potency is given beside an inconclusive call; the fits are too rough.
Test: qHTS for induction of synthetic lethality in tumor cells producing 2HG: qHTS for the HT-1080-IDH1KD cell line
Details: HT-1080 IDH1 knockdown viability, ATP luminescence, 48 h; activity, negative = toxicity: at 46.1 µM (top of the series) unless noted
Source text: Unbiased genomic sequencing for 22 glioma genomes found recurrent mutation of IDH1 on chromosome 2q33, a gene encoding the cytosolic isoform of IIDH1 associated with the tri-carboxylic acid cycle (TCA) that catalyzes the oxidative decarboxylation of isocitrate, yielding alpha-ketoglutarate and CO2 via NADP+ to NADPH conversion. Subsequent studies confirmed the recurrent IDH mutations in up to 70% of secondary gliomas and in 10% of AML cases. In addition, the somatic mutation of cancer-associated IDH1 is a point mutation resulting in various amino-acid substituents at Arginine132 (IDH1 R132), a key residue found in the enzyme's active site that when mutated, results in the loss-of-function in metabolizing isocitrate but confers a gain-of-function to produce the oncometabolite 2-hydroxyglutarate (2HG). This in effect defines IDH1 as an oncogene and provides an extraordinary opportunity to discover chemical probes against mutant IDH1 that may translate into much needed new therapies for glioma and AML patients.
This assay aims to perform a synthetic-lethal screen for chemical probes specific for 2HG-producing tumor cells using matched paired cell lines (1) HT-1080-NT fibrosarcoma cell line that overproduces 2HG and (2) HT-1080-IDH1KD cell line which has IDH1 expression knocked-down. Desirable compounds are toxic to the NT fibrosarcoma cell line but not to the IDH1KD cell line. The data in this AID corresponds to the results of the qHTS against the HT-1080 IDH1KD cell line.
[1] Dang L, Jin S, Su SM. IDH mutations in glioma and acute myeloid leukemia. Trends of Mol Med. 2010; 16(9): 387-97.
[2] Dang L et al. Cancer-associated IDH1 mutations produce 2-hydroxyglutarate. Nature. 2010; 465(7300):966.
Molecular Libraries Probe Production Centers Network [MLPCN]
NIH Chemical Genomics Center [NCGC]
Assay Submitter (PI): Lenny Dang Ph.D., Agios Pharmaceuticals
Suspensions of trypsinized HT-1080-IDH1KD cells were dispensed into white, tissue culture-treated, solid 1536-well plates at 5uL/well (750 cells/well final concentration) in RPMI medium supplemented with 5% FBS. Plates were incubated at 37 degrees C for 2 hours, after which 23 nL of compounds or DMSO were delivered to each well using a pin tool. Plates were then incubated at 37 degrees C for an additional 48 hours. CellTiter-Glo viability reagent (Promega) was dispensed into wells (2.5uL/well) and incubated at room temperature for 10 minutes. The plates were measured on a PerkinElmer ViewLux plate reader for luminescent signal (clear filter, 1 sec exp.). DMSO-treated control wells and media-only (no cells) control wells were used to normalize %Activity of identified toxic compounds; DMSO-treated wells corresponded to 0%Activity (100% viability), while media-only controls were used to normalize 100%Activity (0% viability). To minimize variability between cell lines, both HT-1080-NT and HT-1080-IDH1KD lines were dispensed and treated with identical compound series in single batches.
Concentration-response curves were fitted to the signals arising from the resulting luminescence. The concentration-effect curves were then classified based on curve quality (r2), response magnitude and degree of measured activity, and compounds were subsequently categorized based on their curve class.
Potency is read from the fitted curve at half-maximal effect; tags tell the direction and shape of the fitted curve.

Compound | Potency | activity, negative = toxicity
CS(=O)(=O)N1CCCCC1c1cc(C(=O)NCc2ccc(Cl)c(Cl)c2)no1 (stereo unspecified) | inactive | 
O=C(/C=C/c1cccnc1)c1cc(F)ccc1O | inactive | 
COc1ccc(C2CC(c3cccc(OC)c3)=NN2c2ccc(S(N)(=O)=O)cc2)cc1 (stereo unspecified) | active: 16.4 µM | 
O=C(Nc1nc2c(s1)CCCC2)c1cccs1 | inconclusive [cytotoxic, partial curve] | 
CCN1CCN(c2ccc(S(=O)(=O)N3CCCCC3)cc2NC(=O)/C=C/c2ccc(Cl)cc2)CC1 | inconclusive [cytotoxic, single point] | 
C#CCOCCOCCOCCNc1nc(N2CCN(C(=O)CCCCCCCCCCNC(=O)Cn3cc(CCCCCN)nn3)CC2)nc(N2CCN(C(=O)CCCCCCCCCCNC(=O)[C@H](CO)n3cc(CCCCCN)nn3)CC2)n1 | inconclusive [cytotoxic, single point] | 
Nc1ncnc2c1nc(Br)n2[C@@H]1O[C@@H]2COP(=O)(O)O[C@H]2[C@H]1O | inactive | 
CC(=O)Oc1cc2c(C(=O)NCCCN3CCOCC3)c(C)oc2c2ccccc12 | inconclusive [cytotoxic, single point] | 
CN1C(=O)/C(=C/c2ccc(-c3ccccc3[N+](=O)[O-])o2)SC1=Nc1ccc(Cl)c(C(=O)O)c1 | inactive | 
O=c1[nH]nc(CNc2ccc(O)cc2)c2ccccc12 | inconclusive [cytotoxic, single point] | 
CCC/C=C/c1ccc(CN2C(C)C(=O)N(Cc3cn(Cc4ccco4)nn3)CCS2(=O)=O)cc1 (stereo unspecified) | inactive | 
O=C(Nc1ccccc1C(=O)Nc1nnc(C(F)(F)F)s1)c1ccccc1Cl | active: 10.3 µM | 
C=CCn1c(COc2ccc3c(c2)CCCC3)nnc1SCC(=O)Nc1cccc(SC)c1 | inconclusive [cytotoxic, single point] | 
COc1ccc(NC(=O)CCNC(=O)Cn2cnc3sc4c(c3c2=O)CCCC4)cc1OC | inactive | 
Oc1ccccc1C1CC(c2cccs2)=NC(c2ccc(Cl)cc2)N1 (stereo unspecified) | inconclusive [cytotoxic, partial curve] | 
C[C@@H]1CN([C@@H](C)CO)C(=O)CCCn2nncc2CO[C@@H]1CN(C)C(=O)Nc1ccc(C(C)(C)C)cc1 | inactive | 
Cc1cc(SCC(=O)N/N=C/c2ccc(O)cc2O)nc2ccccc12 | inconclusive [cytotoxic, full curve] | 
Clc1ccc(-c2noc(COc3ccccc3)n2)cc1 | inconclusive [cytotoxic, partial curve, poor fit] | 
COc1ccc(CCOC(=O)c2cccc(NC(C)=O)c2)cc1 | inconclusive [cytotoxic, partial curve] | 
CC(C)OC(=O)CSc1nc(N)c(C#N)c(-c2ccco2)c1C#N | inconclusive [cytotoxic, partial curve] | 
Cc1cccc(NC(=S)NNC(=O)c2csc3c2CCCC3)c1 | inconclusive [cytotoxic, single point] | 
CCOc1ccccc1NC(=O)C(=O)CC(=O)c1cccc(OC)c1 | inconclusive [cytotoxic, single point] | 
CCCCNS(=O)(=O)c1cc(-c2nn(C)c(=O)c3ccccc23)ccc1C | inconclusive [cytotoxic, partial curve, poor fit] | 
CCc1ccc(-c2cc(C)no2)cc1S(=O)(=O)Nc1ccc(C)cn1 | inconclusive [cytotoxic, partial curve] | 

Compound | Potency | activity, negative = toxicity
CC(=O)Nc1cccn(Cc2c(Cl)cccc2Cl)c1=O | inactive | 
Cc1c(NC(=O)CS(=O)(=O)c2ccccc2)c(=O)n(-c2ccccc2)n1C | inactive | 
CN1CCN(c2ccc3c(c2)OC[C@@H](Cc2ccccc2)NS3(=O)=O)CC1 | inactive | 
Cc1cc(C)c(C(=O)NC2CCCc3c2cnn3-c2cccc(C)c2C)o1 (stereo unspecified) | inconclusive [cytotoxic, partial curve] | 
Cc1ccc(-n2c(-c3cccc(C)c3)n[nH]c2=S)cc1 | active: 10 µM | 
COC(=O)[C@H](CC(C)C)NC(=O)c1cc2c(cn1)[nH]c1ccccc12 | inactive | 
N#Cc1ccc(CN2CCN(C(=O)C3CC(=O)N(c4ccccc4F)C3)CC2)cc1 (stereo unspecified) | inactive | 
Cc1cc2c(cc(C(=O)OCC(=O)NCc3cccs3)n2C(C)C)o1 | inconclusive [cytotoxic, full curve, poor fit] | 
Cc1nc(C)c(-c2csc(NCCc3ccccc3)n2)s1 | inconclusive [cytotoxic, single point] | 
CN(C)CCCN(C(=O)c1ccco1)c1nc2ccc(Cl)cc2s1 | active: 18.4 µM | 
CC(=O)Nc1ccc(Nc2nc(C)nc3c2nnn3Cc2ccccc2Cl)cc1 | inconclusive [cytotoxic, single point] | 
Cc1ccc(Nc2nc(C)cc(C)c2C(N)=O)c(C)c1 | inactive | 
O=C(Cc1ccc(F)cc1)Nc1ccc(Cl)cn1 | inconclusive [rising, partial curve] | 
O=C(N/N=C/c1ccc(OC(=O)c2ccccc2)cc1)c1cccnc1 |  | inconclusive: -29.5% [cytotoxic]
Cc1c(N2C(=O)/C(=C/c3ccccc3)SC2=S)c(=O)n(-c2ccccc2)n1C | inconclusive [cytotoxic, single point] | 
COC(=O)C1=C(C)NC(C)=C(C(=O)OC)C1C(=O)OCC(=O)N1c2ccccc2CC1C (stereo unspecified) | inactive | 
CCOC(=O)CCc1c(C)nc(-n2[nH]c(C)c(CCO)c2=O)[nH]c1=O | inconclusive [rising, partial curve] | 
CCn1c(=N)n(CC(=O)C(C)(C)C)c2ccccc21 | active: 7.94 µM | 
O=Nc1c(O)n(Cc2cccc(Cl)c2)c2ccccc12 | active: 18.4 µM | 
Cc1ccccc1-c1ccc(CN2C(C)C(=O)N(Cc3cn(Cc4ccco4)nn3)CCS2(=O)=O)cc1 (stereo unspecified) | inconclusive [cytotoxic, single point] | 
CC1=C(C(=O)OCc2ccccc2)C(c2cccs2)N2C(=O)CCSC2=N1 (stereo unspecified) | inactive | 
CC1CCC(C(C)C)C(OC(=O)Cn2c(-c3ccc(Cl)cc3)[n+](C)c3ccccc32)C1 (stereo unspecified) | active: 5.8 µM | 
O=C(Nc1ccc2c(c1)OCO2)C1Cc2c(-c3ccc4c(c3)OCO4)ccnc2O1 (stereo unspecified) | active: 4.11 µM | 
Nc1ccc2cc3[nH]c4cc(N)ccc4c3nc2c1 | inconclusive [cytotoxic, single point] | 

Compound | Potency | activity, negative = toxicity
COc1ccccc1C(=O)COC(=O)CCNS(=O)(=O)c1ccc(C)c(C)c1 | inactive | 
O=C(Nc1ccc2ccccc2c1)c1ccccc1O | active: 23.1 µM | 
CC(=O)c1ccc(NC(=O)Nc2ccc3c(c2)N(C)C(=O)CS3)cc1 | inconclusive [cytotoxic, single point] | 
CC[n+]1c(/C=C/c2c[nH]c3ccccc23)ccc2cc(C)ccc21 | active: 18.4 µM | 
CCOC(=O)N=Nc1c2ccccc2c2nc3no[nH]c3nc12 | active: 1.03 µM | 
O=C(COC(=O)COc1ccc(Cl)cc1)NCCNC(=O)COC(=O)COc1ccc(Cl)cc1 | inactive | 
CN(Cc1nccn1C)C(=O)c1ccc(OC2CCN(CCc3ccccc3)CC2)cc1 | inactive | 
COC(=O)C1=C(C)N=C2SC(C#N)=C(N)N2C1c1ccc(OCc2ccccc2)cc1 (stereo unspecified) | inconclusive [cytotoxic, partial curve] | 
O=C(Oc1coc(CSc2nnc(NC(=O)C3CC3)s2)cc1=O)c1c(F)cccc1F | inactive | 
CCCOc1ccc(OCC(=O)c2[nH]c(C)c(C(C)=O)c2C)cc1 | inconclusive [cytotoxic, single point] | 
CC(=NNC(=O)c1ccncc1)c1ccc(O)cc1O | inconclusive [cytotoxic, partial curve, poor fit] | 
CC(C)C(=O)N1CCN(c2ccc(NC(=O)COc3ccccc3[N+](=O)[O-])cc2)CC1 | inconclusive [cytotoxic, single point] | 
CCOc1cc(C(=O)NN=C2CCCC2)cc(OCC)c1OCC | inconclusive [cytotoxic, single point] | 
COc1ccc2c(c1OC)C(=O)N(c1cccc(NC(C)=O)c1)C2 | inconclusive [rising, partial curve] | 
COc1cccc(CN(C)C(=O)CN2C(=O)NC3(CCCc4ccccc43)C2=O)c1 (stereo unspecified) | inactive | 
COc1ccc(-c2ccc(CN3C(C)C(=O)N(Cc4cn(CC5CCCCC5)nn4)CCS3(=O)=O)cc2)cc1 (stereo unspecified) | inconclusive [cytotoxic, single point] | 
CCN(CC)CCNC(=O)c1nn(-c2ccc(Cl)cc2)c2c1CCc1cc(OC)ccc1-2 | inconclusive [cytotoxic, single point] | 
CCN(CC)c1ccc(/C=C(/C#N)c2nc3ccccc3[nH]2)c(OC(C)C)c1 | inconclusive [cytotoxic, single point] | 
COc1ccc(Nc2nc(-c3ccccc3)nc3ccccc23)cc1 | inconclusive [cytotoxic, single point] | 
Cc1nc2ccccc2c(=O)n1/N=C/c1c(O)ccc2ccccc12 | inconclusive [cytotoxic, partial curve] | 
CCN1C(=S)SC(=O)C1=C1C=C(C)N(CCO)C(C)=C1 | inconclusive [cytotoxic, single point] | 
CC(C)N(Cc1ccccc1)C(=O)CN1C(=O)COc2ccc(S(=O)(=O)N3CCCCCC3)cc21 | inactive | 
CCS(=O)(=O)c1ccc2c(c1)N(S(C)(=O)=O)CC(C(=O)NCc1ccccc1OC)O2 (stereo unspecified) | inconclusive [cytotoxic, single point] | 

Source: PubChem BioAssay AID686971 (National Center for Advancing Translational Sciences (NCATS), 2013)
